Among all 310,000 compounds or so, about 11,000 (3.5%) were called active. The inconclusive results got no clear call from the source; some entries with a clear call stand among them for comparison. Calls come from the whole dose curve; as a rule, active = well fitted inhibition curve with a large enough effect; inconclusive = small, poorly fitted or top-dose-only effect, or effect the other way; inactive = flat fitted curve, though single readings scatter. Potencies of inconclusive entries are left out as doubtful fits.
test: VP16 counterscreen qHTS for inhibitors of ROR gamma transcriptional activity; settings: Drosophila S2 Gal4-VP16 UAS-luciferase, luminescence, 20 h; activity, negative = inhibition: at 53.6 µM (top of the series);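 note: Gal4-VP16 expression switched on by copper sulfate through the metallothionein promoter; nearly all actives have a fitted effect of over 50% in size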
% is set by controls: 0 for no effect and ±100 for the full control effect; potency is the fitted concentration of half-maximal effect; tags give direction and shape of the fitted curve.

SMILES | Potency | activity, negative = inhibition
C=C1c2ccccc2NC(=S)N1Cc1ccc2c(c1)OCO2 | inconclusive [inhibitor, single point] | 
Cc1cccc(CN2CC34C=CC(CC3S2(=O)=O)O4)c1 (stereo not given) | inconclusive [activator, single point] | 
N#C/C(=C(/O)c1ccc(Cl)c([N+](=O)[O-])c1)c1nc2ccccc2[nH]1 | inconclusive [inhibitor, single point] | 
CN(C1CCCC1)C1CCN(C(=O)CNC(=O)/C=C/c2ccccc2)CC1 | inconclusive [activator, single point] | 
CCOc1ccccc1Nc1nnc(SCc2nnc(-c3cc(OC)c(OC)c(OC)c3)o2)s1 | inconclusive [inhibitor, partial curve] | 
COC(=O)Cn1ncc2c(C)n(Cc3ccccc3)c(C)c2c1=O | inconclusive [inhibitor, single point] | 
CC(=O)N1c2ccc(S(=O)(=O)NCCC(=O)NCc3ccc(Cl)cc3)cc2CC1C (stereo not given) |  | inactive: -15.7%
CC1CCN(S(=O)(=O)c2ccc(C(=O)Nc3sccc3C(N)=O)cc2)CC1 | inconclusive [inhibitor, partial curve] | 
Cc1ccc(C)c(NC(=O)C(OC(=O)c2ccc(C)s2)c2ccccc2)c1 (stereo not given) | inconclusive [inhibitor, single point] | 
COc1ccc(/C=C/C(=O)c2ccccc2)cc1Cn1nnc2ccccc21 | inconclusive [inhibitor, single point] | 
O=C1CC(Sc2cccs2)C(=O)N1c1ccccc1 (stereo not given) | active: 7.94 µM | 
COc1ccc(N2CCN(Cc3cc(=O)oc4cc5c(cc34)CCCC5)CC2)cc1 |  | inactive: -3.07%
COc1ccc(-c2nc3cc(NC(=O)Cc4ccc(OC)c(OC)c4)ccc3o2)cc1 | inconclusive [inhibitor, single point] | 
O=C(NNC(=S)NC(=O)c1ccc(Br)cc1)c1cccc([N+](=O)[O-])c1 | inconclusive [inhibitor, single point] | 
O=Cc1ccc(OC2C=CC(c3ccccc3)OC2CO)cc1 (stereo not given) |  | inactive: 2.2% [at 10 µM]
COc1ccc(/C=N\NC(=O)c2ccc(F)cc2)cc1COc1cc(F)ccc1[N+](=O)[O-] | inconclusive [inhibitor, single point] | 
CCn1ccnc1CN1CCCC(C(=O)c2ccc3c4c(cccc24)CC3)C1 (stereo not given) | active: 4.47 µM | 
O=C(CN1CCN(Cc2ccc(Cl)cc2)CC1)N/N=C/c1cccs1 | inconclusive [inhibitor, single point] | 
O=C(CN1c2cccc3cccc(c23)S1(=O)=O)Nc1ccccc1F |  | inactive: -9.35%
CC12CCC(=O)N1C(C(=O)NCCc1ccccc1)CS2 (stereo not given) | active: 15.8 µM | 
COc1ccccc1NC(=S)NC1CCC(CC2CCC(NC(=S)Nc3ccccc3OC)CC2)CC1 (stereo not given) | active: 3.16 µM | 
O=C(NCCCN1CCCC1=O)Nc1ccc(F)c(Cl)c1 | inconclusive [inhibitor, single point] | 
Cc1cc2c(c(=O)o1)C(CC(C)C)C(C#N)=C(N)O2 (stereo not given) | inconclusive [inhibitor, single point] | 
CC(=O)c1ccc(NC(=O)C2CCCN(c3ncnc4c3nc3n4CCCCC3)C2)cc1 (stereo not given) | inconclusive [inhibitor, single point] | 

SMILES | Potency | activity, negative = inhibition
O=C(Oc1ccccc1/C=C\C(=O)c1cc2ccccc2o1)c1cccc(F)c1 | inconclusive [inhibitor, single point] | 
COc1ccc(CC(=O)NC(C)c2nnc(SCC(=O)c3ccc(Br)cc3)n2C)cc1 (stereo not given) | inconclusive [inhibitor, single point] | 
CCN(CC)CCCNc1nc2cc(OC)c(OC)cc2c2nc(-c3cccnc3)nn12 | inconclusive [inhibitor, partial curve] | 
CC1=C(CC(=O)O)c2cc(F)ccc2/C1=C\c1ccc(S(C)=O)cc1 (stereo not given) | inconclusive [inhibitor, single point] | 
CC(C)N1C(=O)S/C(=C\c2ccc(-c3ccc(Cl)c(C(=O)O)c3)o2)C1=O | active: 2.51 µM | 
COc1cc(N/C(N)=N/c2nc(C)cc(C)n2)cc(OC)c1 |  | inactive: -11.6%
O=C1C=C(c2ccccc2)CC(/C=C/c2ccccc2)C1 (stereo not given) |  | inactive: -0.113%
CC(Cl)C(=O)Nc1cc(C(F)(F)F)ccc1N1CCOCC1 (stereo not given) |  | inactive: 3.97%
CCCCn1c(=N)n(CC(=O)c2ccc(OC)cc2)c2ccccc21 | inconclusive [inhibitor, single point] | 
COc1cccc(N/C(C)=C/C(=O)c2ccc(Br)cc2)c1 | inconclusive [inhibitor, single point] | 
COc1cccc(NC(=O)CSc2nc3n[nH]c(C)c3c(=N)n2-c2cccc(OC)c2)c1 |  | inactive: -0.931%
COCC(=O)N1CCC2(CC1)CN(C(c1ccccc1)c1ccccc1)C2 |  | inactive: -4.28%
NC(=O)c1nn(-c2ccccc2)nc1NC(=O)Cn1nnc(-c2ccccc2)n1 | inconclusive [inhibitor, single point] | 
COc1cc(SC#N)ccc1N=Cc1c(C)[nH]n(-c2cccc3ccccc23)c1=O | inconclusive [inhibitor, single point] | 
C/C(=N\NC(=O)C1COc2ccccc2O1)c1ccccn1 (stereo not given) | active: 2.82 µM | 
C=CCn1c(C)cc(C(=O)CSc2nc3ccccc3o2)c1C | inconclusive [inhibitor, single point] | 
O=C(Nc1ccc(N2CCN(C(=O)c3cccs3)CC2)cc1)c1ccc([N+](=O)[O-])o1 | inconclusive [inhibitor, single point] | 
COc1ccccc1CNC(=O)Cc1ccc(Br)cc1 | inconclusive [activator, single point] | 
Cc1ccsc1/C=N/n1c(COc2ccccc2)n[nH]c1=S | active: 6.31 µM | 
Cc1c(C(=O)N2CCN(Cc3ccc4c(c3)OCO4)CC2)cccc1[N+](=O)[O-] | inconclusive [activator, single point] | 
COC(=O)c1ccc(CSc2nc3ccccc3c(=O)n2CC(C)C)o1 |  | inactive: 7.17%
CN(Cc1ccccc1)S(=O)(=O)c1ccc(NC(=S)NC(=O)C2CCCCC2)cc1 | active: 7.94 µM | 
CNC(=O)N(O)C1N(/N=C/c2cc(Br)ccc2O)C(=S)SC1(C)C (stereo not given) | inconclusive [inhibitor, single point] | 
Cc1nc2ccc(S(=O)(=O)Nc3cccc(-c4nc5cccnc5s4)c3C)cc2s1 | inconclusive [inhibitor, single point] | 

SMILES | Potency | activity, negative = inhibition
N#Cc1c(NC(=O)CSc2nc(N)cc(=O)[nH]2)sc2c1CCCCCC2 | inconclusive [inhibitor, single point] | 
N#C/C(=C\c1ccccn1)c1nc2ccccc2s1 | inconclusive [inhibitor, single point] | 
COc1ccc2nc(N3C(=O)CNC3=S)sc2c1 | active: 5.62 µM | 
N#CC(C#N)=C1C=CC=CN1/C(=C\c1ccco1)C(=O)c1ccccc1 | active: 1.78 µM | 
CC(=O)Oc1ccc(/C=C(\NC(=O)c2ccco2)C(=O)NCc2ccco2)cc1 |  | inactive: 1.72%
CC(=O)NCCc1nc2cc(NC(=O)COc3cccc(C)c3)ccc2n1C |  | inactive: -20.5%
Cc1ccc(NS(=O)(=O)c2ccc3c(c2)NC(=O)CCS3)cc1C | inconclusive [inhibitor, single point] | 
CN1CCCC2(CCN(C(=O)c3cc(C(F)(F)F)cc(C(F)(F)F)c3)CC2)C1 |  | inactive: -0.84%
O=C(CN1CCN(c2ccc(O)cc2)CC1)Nc1ccc(SC(F)F)cc1 | inconclusive [inhibitor, single point] | 
CCOC(=O)c1c(C)nc2sc(C(=O)Nc3ccccc3)c(N)c2c1-c1ccc(OC)cc1 |  | inactive: 12.7%
Cc1cccc2cc(-c3ccccc3)c(-c3ccccc3)c[n+]12 | inconclusive [inhibitor, partial curve] | 
COc1cccc(Nc2ncc3nc(-c4cccs4)c(=O)n(CCC#N)c3n2)c1 | inconclusive [inhibitor, single point] | 
N#Cc1c(NC(=S)NC(=O)c2ccccc2)sc2c1CCN(CCc1ccccc1)C2 | inconclusive [inhibitor, single point] | 
Cc1cc(NC(=O)CSc2nnc(-c3ccncc3)n2C)n(-c2ccccc2)n1 |  | inactive: 6.28%
COc1ccc(-n2c(COc3ccc(C)cc3)nnc2SCc2ccc(C#N)cc2)cc1 |  | inactive: -0.371%
COc1cccc(N=c2oc3ccccc3cc2-c2nc3ccccc3[nH]2)c1 | inconclusive [inhibitor, single point] | 
CCOC(=O)c1c(C)n(CC(O)c2ccccc2)c2ccc(O)cc12 (stereo not given) | inconclusive [inhibitor, partial curve] | 
COc1ccc(Nc2ccc(N3C(=O)CCCC3=O)cc2[N+](=O)[O-])cc1OC |  | inactive: -5.24%
CC(=O)C1=C(C)NC(SCC(=O)c2ccccc2)=C(C#N)C1CC(C)C (stereo not given) | inconclusive [inhibitor, single point] | 
Cc1ccccc1OCc1nnc(SCC(=O)Nc2ccc3c(c2)oc2ccccc23)n1C | inconclusive [inhibitor, single point] | 
CCOc1cccc2sc(NC(=O)c3ccc(Br)s3)nc12 | inconclusive [inhibitor, single point] | 
CNC(=S)Nc1sc2c(c1C(=O)OC)CCC2 | inconclusive [inhibitor, partial curve, poor fit] | 

From PubChem BioAssay AID2546 (National Center for Advancing Translational Sciences (NCATS), 2010)
